Assay results published in publication PMC11082251.
No constants are given. Whether binding was seen depends on the method and setting. For part of these data: In cells and extracts the contact can be indirect. Some binding calls cover weakened binding; strength is not graded here. Each block holds one substance with its values, some of them ahead of it.

Amino acid sequences for entries named in this document (tags omitted). A change or cut given only in a name is not applied to a line headed by its entry. Chains listed by the source or under a name are the forms on record and can include a tag or linker. Residues count along the entry.
UniProt Q04206: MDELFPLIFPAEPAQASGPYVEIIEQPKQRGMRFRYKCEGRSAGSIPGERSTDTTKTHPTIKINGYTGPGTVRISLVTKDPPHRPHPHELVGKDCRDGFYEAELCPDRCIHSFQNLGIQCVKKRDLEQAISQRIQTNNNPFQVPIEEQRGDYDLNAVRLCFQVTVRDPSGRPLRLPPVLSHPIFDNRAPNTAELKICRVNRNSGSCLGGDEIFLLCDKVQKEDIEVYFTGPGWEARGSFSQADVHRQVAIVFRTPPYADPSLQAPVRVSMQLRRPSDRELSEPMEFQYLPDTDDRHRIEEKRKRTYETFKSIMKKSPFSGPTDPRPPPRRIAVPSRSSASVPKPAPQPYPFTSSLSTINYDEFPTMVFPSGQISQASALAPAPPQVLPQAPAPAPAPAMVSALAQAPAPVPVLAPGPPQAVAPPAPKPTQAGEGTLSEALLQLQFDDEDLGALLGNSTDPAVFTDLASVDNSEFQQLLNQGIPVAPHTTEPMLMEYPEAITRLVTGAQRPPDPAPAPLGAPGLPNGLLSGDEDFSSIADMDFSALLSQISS
Flag-CLK2 (CDC-like kinase 2) (P49760, form named): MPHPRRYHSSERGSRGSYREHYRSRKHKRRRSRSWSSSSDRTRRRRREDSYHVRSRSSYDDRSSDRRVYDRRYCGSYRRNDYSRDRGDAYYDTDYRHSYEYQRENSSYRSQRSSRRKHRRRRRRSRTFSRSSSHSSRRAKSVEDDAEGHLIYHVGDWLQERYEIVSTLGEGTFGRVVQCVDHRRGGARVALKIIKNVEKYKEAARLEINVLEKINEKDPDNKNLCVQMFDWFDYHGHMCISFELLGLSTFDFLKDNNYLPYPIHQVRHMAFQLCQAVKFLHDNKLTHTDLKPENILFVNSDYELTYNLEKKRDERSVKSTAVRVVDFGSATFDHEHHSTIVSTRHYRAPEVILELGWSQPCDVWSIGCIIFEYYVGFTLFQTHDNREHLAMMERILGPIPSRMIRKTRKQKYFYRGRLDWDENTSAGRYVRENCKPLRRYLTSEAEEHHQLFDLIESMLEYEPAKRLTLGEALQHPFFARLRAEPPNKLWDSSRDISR
Flag-CLK2^K192R (CLK2 kinase-dead mutant) (P49760, form named): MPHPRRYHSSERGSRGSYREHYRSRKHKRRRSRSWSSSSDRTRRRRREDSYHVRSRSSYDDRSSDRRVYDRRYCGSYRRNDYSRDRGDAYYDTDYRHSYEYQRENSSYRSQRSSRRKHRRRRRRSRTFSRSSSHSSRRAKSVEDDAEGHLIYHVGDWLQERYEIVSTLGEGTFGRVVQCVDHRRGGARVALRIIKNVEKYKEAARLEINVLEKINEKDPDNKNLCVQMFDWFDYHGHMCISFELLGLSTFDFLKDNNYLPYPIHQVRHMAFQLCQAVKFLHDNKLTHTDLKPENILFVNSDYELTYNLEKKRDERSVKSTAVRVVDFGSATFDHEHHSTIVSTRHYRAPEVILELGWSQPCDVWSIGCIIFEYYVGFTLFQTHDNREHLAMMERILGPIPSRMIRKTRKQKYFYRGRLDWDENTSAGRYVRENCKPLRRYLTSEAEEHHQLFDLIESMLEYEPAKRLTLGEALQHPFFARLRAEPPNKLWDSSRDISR
UniProt O14980: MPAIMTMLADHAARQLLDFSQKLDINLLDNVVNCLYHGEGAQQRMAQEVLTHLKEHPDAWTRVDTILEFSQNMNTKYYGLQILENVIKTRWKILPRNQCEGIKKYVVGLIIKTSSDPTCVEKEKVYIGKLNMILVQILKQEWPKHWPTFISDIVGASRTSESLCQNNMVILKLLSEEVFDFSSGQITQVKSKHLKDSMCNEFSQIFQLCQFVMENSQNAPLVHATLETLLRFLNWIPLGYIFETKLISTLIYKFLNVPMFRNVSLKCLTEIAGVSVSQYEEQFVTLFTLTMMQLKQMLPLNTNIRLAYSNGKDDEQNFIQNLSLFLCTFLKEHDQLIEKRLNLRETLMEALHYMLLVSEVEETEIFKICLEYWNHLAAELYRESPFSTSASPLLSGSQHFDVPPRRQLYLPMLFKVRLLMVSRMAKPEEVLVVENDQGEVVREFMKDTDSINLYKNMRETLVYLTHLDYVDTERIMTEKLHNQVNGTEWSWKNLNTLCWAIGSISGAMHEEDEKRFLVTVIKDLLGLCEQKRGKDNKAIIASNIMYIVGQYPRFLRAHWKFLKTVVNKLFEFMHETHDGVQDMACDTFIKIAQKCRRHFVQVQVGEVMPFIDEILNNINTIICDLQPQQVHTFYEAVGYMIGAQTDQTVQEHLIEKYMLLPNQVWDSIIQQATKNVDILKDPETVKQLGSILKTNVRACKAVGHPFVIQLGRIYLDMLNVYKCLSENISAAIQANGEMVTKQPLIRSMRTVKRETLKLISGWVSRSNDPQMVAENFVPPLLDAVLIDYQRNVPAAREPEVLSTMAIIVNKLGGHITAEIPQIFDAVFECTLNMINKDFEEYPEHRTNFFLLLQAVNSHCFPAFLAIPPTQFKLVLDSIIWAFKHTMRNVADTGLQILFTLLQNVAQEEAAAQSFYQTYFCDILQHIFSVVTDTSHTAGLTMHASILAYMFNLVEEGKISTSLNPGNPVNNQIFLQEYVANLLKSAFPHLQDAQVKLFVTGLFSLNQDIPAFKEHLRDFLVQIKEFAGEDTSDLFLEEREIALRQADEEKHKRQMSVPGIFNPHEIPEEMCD
UniProt P25963: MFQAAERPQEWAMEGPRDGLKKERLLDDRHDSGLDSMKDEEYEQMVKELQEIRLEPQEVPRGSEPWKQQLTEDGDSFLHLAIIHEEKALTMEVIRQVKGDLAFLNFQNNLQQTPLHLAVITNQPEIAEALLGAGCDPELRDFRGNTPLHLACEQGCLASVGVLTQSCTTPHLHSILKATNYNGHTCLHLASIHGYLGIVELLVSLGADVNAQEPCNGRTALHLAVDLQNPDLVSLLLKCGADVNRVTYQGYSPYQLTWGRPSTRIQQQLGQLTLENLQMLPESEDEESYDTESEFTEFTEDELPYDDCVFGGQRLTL
UniProt P19838, residues 1-433: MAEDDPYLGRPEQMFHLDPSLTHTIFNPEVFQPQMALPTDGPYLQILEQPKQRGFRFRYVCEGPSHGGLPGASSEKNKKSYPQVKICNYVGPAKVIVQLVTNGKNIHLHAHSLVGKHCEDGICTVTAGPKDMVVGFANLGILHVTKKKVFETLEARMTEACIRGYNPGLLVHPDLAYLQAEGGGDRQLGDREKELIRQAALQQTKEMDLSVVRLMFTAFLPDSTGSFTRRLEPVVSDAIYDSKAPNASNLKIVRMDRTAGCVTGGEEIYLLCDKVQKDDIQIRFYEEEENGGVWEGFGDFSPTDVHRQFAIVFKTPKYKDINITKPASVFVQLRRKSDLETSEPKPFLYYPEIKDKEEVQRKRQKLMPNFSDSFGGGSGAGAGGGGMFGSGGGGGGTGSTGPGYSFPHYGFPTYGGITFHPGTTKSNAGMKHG

Assays:
[1] = target: endogenous p65 (RelA/p65), wild type (human (endogenous in HEK293T)) (UniProt Q04206); experiment: co-IP; endogenous proteins in p65^+/+, p65^S180D/KI, p65^S180A/KI and CLK2^−/− HEK293T cells, in the presence or absence of TNF-α stimulation; results normalised to total p65
[2] = target: p65^S180D/KI (p65 S180D from knock-in HEK293T cells) (human (endogenous in HEK293T)) (UniProt Q04206); experiment: as above
[3] = target: p65^S180A/KI (p65 S180A from knock-in HEK293T cells) (human (endogenous in HEK293T)) (UniProt Q04206); experiment: as above
[4] = target: Flag-tagged CLK2 from knock-in HEK293T cells (CLK2^Flag/KI) (human (endogenous in HEK293T)) (UniProt P49760); experiment: co-IP; CLK2^Flag/KI HEK293T cells, Flag antibody, in the presence or absence of SeV and TNF-α stimulation for different times; NP40 lysis buffer
[5] = target: Flag-CLK2^K192R (CLK2 kinase-dead mutant) (UniProt P49760); experiment: co-IP; HEK293T cells transfected with HA-p65 and Flag-CLK2 or Flag-CLK2^K192R, with or without TG003 (20 μM); NP40 lysis buffer (50 mM Tris-HCl pH 8.0, 150 mM NaCl, 0.5–1.0% NP40), indicated antibodies and Protein A or G beads, 4 °C overnight
[6] = target: Flag-CLK2 (CDC-like kinase 2) (UniProt P49760); experiment: as above
[7] = target: p65^S180D, exogenously expressed (UniProt Q04206); experiment: co-IP; exogenous coimmunoprecipitation of p65^S180D and IκBα (Supplementary Fig. 6h)
[8] = target: Flag-CLK2^K192R (CLK2 kinase-dead mutant) (UniProt P49760); experiment: pull-down; purified His-p65 and Flag-CLK2 (or Flag-CLK2^K192R) incubated in lysis buffer for 4 h at 4 °C, washed three times with lysis buffer, western blotting; both purified
[9] = target: Flag-CLK2 (CDC-like kinase 2) (UniProt P49760); experiment: as above

binding [1]: binds | binding [2]: binds | binding [3]: binds
Substance: endogenous nuclear export protein CRM1 (from UniProt O14980 1-1071)

binding [7]: binds
Substance: IκBα, exogenously expressed (from UniProt P25963 1-317)

binding [3]: binds
Substance: endogenous IκBα (from UniProt P25963 1-317)

Continued, substance first:

Substance: endogenous p65 (RelA/p65), wild type (from UniProt Q04206 1-551)
binding [4]: binds

Substance: endogenous p50 (NF-κB p105/p50) (from UniProt P19838 1-433)
binding [1]: binds | binding [2]: binds

Substance: HA-p65 (RelA/p65 subunit of NF-κB) (from UniProt Q04206 1-551)
binding [5]: no binding | binding [6]: binds

Substance: His-p65 (from UniProt Q04206 1-551)
binding [8]: no binding | binding [9]: binds
